The values below come from the RNAGym collection of RNA variant scans (doi:10.1101/gad.245936.114).

B1: tRNA (parent)
chain: CUCUCGGUAGCCAAGUUGGUUUAAGGCGCAAGACUUUAAUUUAUCACUACGAAAUCUUGAGAUCGGGCGUUCGACUCGCCCCCGGGAGAUUUUUUCCUCGAGCAA

Variants at the floor of the assay are shown more often than the library holds them.

Variants of B1 are the subject of the data set. The data set is described as follows: nonsense suppression (GFP-seq) (ratio to wild type); higher = more function; SUP4oc tRNA, yeast GFP reporter sort-seq. In a few lines:
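To measure nonsense suppression, tRNA variants from a library carrying ~3% random mutations were integrated into the yeast genome alongside RFP and a GFP ochre reporter under galactose control. Growth took place in raffinose/galactose medium supplemented with 80 mg/L adenine, followed by sorting into GFP/RFP bins and Illumina sequencing of each bin (phred ≥30). For each variant with ≥100 reads and ≥30 cells, the bin median GFP/RFP values were weighted by its estimated cell share per bin and referenced to the unmutated parent tRNA.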
In the case of G10A U71C, the nonsense suppression is ≤ 0.026.
For U17G U63C C68G, the nonsense suppression is ≤ 0.026.
In the case of U8C U16A A30C A54C, the nonsense suppression is ≤ 0.026.
On to G10A C12U, for which the nonsense suppression is ≤ 0.026.
Regarding C5A C29G C80U, the nonsense suppression was ≤ 0.026.
On to C12G A62U, for which the nonsense suppression is ≤ 0.026.
With G32U A33G, the nonsense suppression was ≤ 0.026.
For the variant U8A G18C A23U, the nonsense suppression is ≤ 0.026.
With G19C U22C G78C, the nonsense suppression is ≤ 0.026.
Consider G10U U55A G59A G86C, for which the nonsense suppression is ≤ 0.026.
As to C1G G65A, the nonsense suppression is ≤ 0.026.
Take U4C C11A A13G: the nonsense suppression was ≤ 0.026.
Regarding A24G A60U C77G G85C, the nonsense suppression is ≤ 0.026.
In the case of G26C C34A G65U, the nonsense suppression was ≤ 0.026.
Regarding C12A U63C U70C, the nonsense suppression is ≤ 0.026.
As to U4A U20G G32A G61A C79G, the nonsense suppression was ≤ 0.026.
C5U G28C A30G A33U: the nonsense suppression is ≤ 0.026.
To U8A C83U belongs ≤ 0.026.
As to U16C G65U, the nonsense suppression was ≤ 0.026.
As for A23U G28C A30U A33C U63C, the nonsense suppression was ≤ 0.026.
For U16A G59C C80G, the nonsense suppression is ≤ 0.026.
With G59C C83A, the nonsense suppression is ≤ 0.026.
To G6C A23C U55G C64A U70C G85U belongs ≤ 0.026.
In the case of A13C G25A, the nonsense suppression worked out at 0.0288.
Consider C83U G85U G88C, for which the nonsense suppression is ≤ 0.026.
Turning to U16A G73C, the nonsense suppression is ≤ 0.026.
Consider C5A A9U U35A U55C, for which the nonsense suppression was ≤ 0.026.
Consider U55G, for which the nonsense suppression was ≤ 0.026.
For G6C U35G G66C, the nonsense suppression was ≤ 0.026.
To G10A G15C A54G A62C belongs ≤ 0.026; to C5U U55G C68A A74U, ≤ 0.026.
A9G G26U C68G A74C: the nonsense suppression is ≤ 0.026.
For the variant U2C U16G A24U U63C, the nonsense suppression was ≤ 0.026.
In the case of C27A A87U, the nonsense suppression was ≤ 0.026.
Take G26C U57G U58G: the nonsense suppression is ≤ 0.026.
In the case of C1U U4C A33G C72G, the nonsense suppression was ≤ 0.026.
Regarding A33C C56A G78A, the nonsense suppression is ≤ 0.026.
On to C27U A30U G85C, for which the nonsense suppression is ≤ 0.026.
To C12U G18U A30C G84A A89C belongs ≤ 0.026; to A24G A31U A87U, ≤ 0.026; to U16C U21C A31U, 0.204.
In the case of C12U U58G C83G, the nonsense suppression was ≤ 0.026.
As to U16G C29U A89C, the nonsense suppression is ≤ 0.026.
As for A24C G28U G67U C80A, the nonsense suppression is ≤ 0.026.
On to G15A G67A C72A, for which the nonsense suppression was ≤ 0.026.
To A23U C75A belongs ≤ 0.026; to A31U G59A, ≤ 0.026.
As for G69A C80U, the figure is ≤ 0.026.
Regarding G10A G67A C68U, the nonsense suppression is ≤ 0.026.
As for C27A A33U A60U, the nonsense suppression was ≤ 0.026.
C64A C77G: the nonsense suppression is ≤ 0.026.
To U2C C12U G61U U63A belongs ≤ 0.026; to C1U G61C C68U G84A A87G, ≤ 0.026.
Regarding G73A G85A, the nonsense suppression amounted to 1.03.
Take C29A G84C: the nonsense suppression was ≤ 0.026.
To A9U A13G U57G belongs ≤ 0.026; to C11A U21C G59A C83G, ≤ 0.026; to C29G U70C C80U, ≤ 0.026.
Turning to U8A G65A G67A A74C A87U, the nonsense suppression is ≤ 0.026.
As to C34G G73C G88C, the nonsense suppression is ≤ 0.026.
With G15U A62U G65C, the nonsense suppression was ≤ 0.026.
As for A23G A24G G28C A54C C75G, the figure is ≤ 0.026; as for U22C G61A C79U, 0.197; as for C11U G66U A74G, ≤ 0.026.
As for A13U G67A, the nonsense suppression stood at 0.0502.
Turning to C5U U58C G84A, the nonsense suppression was ≤ 0.026.
In the case of G15U G26U G65C, the nonsense suppression was ≤ 0.026.
Take A24G C34A U70A: the nonsense suppression is ≤ 0.026.
In the case of C29U C56A, the nonsense suppression is ≤ 0.026.
Turning to C5U C79G, the nonsense suppression is ≤ 0.026.
Turning to C34U G66U, the nonsense suppression is ≤ 0.026.
U22C U63C G69A G78A: the nonsense suppression was ≤ 0.026.
As to G73C C82U, the nonsense suppression was ≤ 0.026.
Turning to U16G U76A, the nonsense suppression was ≤ 0.026.
Take G6A C34G: the nonsense suppression is ≤ 0.026.
On to A33G G67A, for which the nonsense suppression is ≤ 0.026.
For the variant U20A A60C C80A, the nonsense suppression was ≤ 0.026.
To G28C U55A U63C belongs ≤ 0.026; to U35G G66C A89C, ≤ 0.026; to G28U A30G G32A U57G U58G C72U, ≤ 0.026.
C5A C68G: the nonsense suppression was ≤ 0.026.
For the variant C5U G18C, the nonsense suppression was ≤ 0.026.
Take A14G C56A: the nonsense suppression was ≤ 0.026.
As for A24C A62U G67U G73A, the figure is ≤ 0.026; as for G15A C83A, ≤ 0.026.
As for G6U A9G, the nonsense suppression was ≤ 0.026.
On to C3U C68G C72A, for which the nonsense suppression is ≤ 0.026.
As for C5U G28C, the figure is 0.0292; as for U57A C80A G86C, ≤ 0.026; as for G73U C83A, ≤ 0.026.
As to G15C G84A, the nonsense suppression was ≤ 0.026.
Turning to A54U U70C C81U C82G, the nonsense suppression is ≤ 0.026.
As for G7A U8C A30C U58A, the nonsense suppression was ≤ 0.026.
For C27G C56A, the nonsense suppression is ≤ 0.026.
Take U17G U20A C79G: the nonsense suppression was ≤ 0.026.
In the case of C1A U63C U71A, the nonsense suppression was ≤ 0.026.
U2C C5G: the nonsense suppression was ≤ 0.026.
Turning to G10C U35C U71G G78A, the nonsense suppression is ≤ 0.026.
To A24U C79A belongs ≤ 0.026; to A31G C34U C82U, ≤ 0.026.
For the variant G6C G59U C79A, the nonsense suppression is ≤ 0.026.
As for G19C U57G, the nonsense suppression was ≤ 0.026.
As for U2C C3A A60G, the nonsense suppression is ≤ 0.026.
On to G25U U63C U76G G85U, for which the nonsense suppression is ≤ 0.026.
As to C5A A13C U58A C81A, the nonsense suppression is ≤ 0.026.
As for C34A C68A A87U, the nonsense suppression was ≤ 0.026.
Consider G10U G61A, for which the nonsense suppression was ≤ 0.026.
As to C5G G61A, the nonsense suppression is ≤ 0.026.
Consider C3U G28A U57C G66U, for which the nonsense suppression is ≤ 0.026.
For the variant C29A A31G G32U, the nonsense suppression is ≤ 0.026.
As for C1A C5A U21C U70C A89G, the figure is ≤ 0.026.
C27U A30U G65C: the nonsense suppression was ≤ 0.026.
C3U A60G: the nonsense suppression was ≤ 0.026.
G19C U57G G66A: the nonsense suppression is ≤ 0.026.
In the case of C3A G65A, the nonsense suppression is ≤ 0.026.
As to G6A A9U A87U, the nonsense suppression was ≤ 0.026.
Consider U57A U70C G85U, for which the nonsense suppression was ≤ 0.026.
For A60C U70C, the nonsense suppression is ≤ 0.026.
In the case of G28A G66U G78U G84U, the nonsense suppression is ≤ 0.026.
As for C11U C79A A87C, the figure is ≤ 0.026; as for A30C C79A A87U, ≤ 0.026.
Take U21C U35A C64A: the nonsense suppression is ≤ 0.026.
Take C11A A30G C77A: the nonsense suppression is ≤ 0.026.
With C5U G19A A33G G66A G84C, the nonsense suppression is ≤ 0.026.
With U70C C81G G85A, the nonsense suppression was ≤ 0.026.
U35A U55A G88A: the nonsense suppression is ≤ 0.026.
For the variant G19C A30U, the nonsense suppression was ≤ 0.026.
G26C A89U: the nonsense suppression is ≤ 0.026.
Consider G10U C27A G65U G66A, for which the nonsense suppression was ≤ 0.026.
Regarding C5G C11A C72G, the nonsense suppression was ≤ 0.026.
For U4A G18C C34G U58A A89C, the nonsense suppression was ≤ 0.026.
As for U57G G61U C79A, the figure is ≤ 0.026; as for U58G G69C, ≤ 0.026.
Regarding C5A U8C A9U C80A, the nonsense suppression was ≤ 0.026.
For U16A U17A C72G, the nonsense suppression is ≤ 0.026.
In the case of G6U C12G G25U A30G, the nonsense suppression was ≤ 0.026.
As to G15C A24C G69A U71G, the nonsense suppression was ≤ 0.026.
Take G28A G67A: the nonsense suppression worked out at 0.209.
In the case of U2A G10C U21A, the nonsense suppression is ≤ 0.026.
With G10C G15U, the nonsense suppression is ≤ 0.026.
G25C C77U C80G: the nonsense suppression is ≤ 0.026.
For A14G U35C, the nonsense suppression was ≤ 0.026.
With A31G G32A, the nonsense suppression was ≤ 0.026.
On to U4A C29U A30G U57G G78U G85A, for which the nonsense suppression was ≤ 0.026.
Regarding G15U A23C C68G G69C U76G G78A C80U G85C, the nonsense suppression was ≤ 0.026.
Regarding U2A U22C U35G U57A A62C, the nonsense suppression is ≤ 0.026.
For the variant G32A U63A, the nonsense suppression is ≤ 0.026.
To A31G C68G belongs ≤ 0.026.
For the variant C5U C11A, the nonsense suppression is ≤ 0.026.
Turning to A9C U35G G84A G85A, the nonsense suppression is ≤ 0.026.
To U35G A89G belongs ≤ 0.026; to U8C A24G G61C U76G C80G, ≤ 0.026.
For C72G A87G, the nonsense suppression was ≤ 0.026.
As for G7C G66A, the figure is ≤ 0.026; as for C1G G7U U17A A87G, ≤ 0.026.
Consider U55A C79U A87U, for which the nonsense suppression was ≤ 0.026.
Turning to C27A G66A, the nonsense suppression is ≤ 0.026.
In the case of A30U U58A, the nonsense suppression was determined as 0.89.
As for G18U U22G A24U G25U G66C C79G G88U, the figure is ≤ 0.026.
In the case of A14U U16C, the nonsense suppression was ≤ 0.026.
With U4G U20C G61C G67C U76C G88C, the nonsense suppression was ≤ 0.026.
On to U2G U8A G10A G69U G78C, for which the nonsense suppression is ≤ 0.026.
For U20G G59C C64A G85U, the nonsense suppression is ≤ 0.026.
With G15A G28A A60U G86C, the nonsense suppression is ≤ 0.026.
In the case of A9U A23C A24C, the nonsense suppression was ≤ 0.026.
To G7U A23U G25A U57C U58C belongs ≤ 0.026; to G6U U55A G85U G86A, ≤ 0.026.
